# Assay results reported in PMC11995724, “Antibiotic target discovery by integrated phenotypic and activity-based profiling of electrophilic fragments” (Cell chemical biology, 2025).
# The whole screen tested about 3,200 compounds, of which about 75 (2%) showed an effect of 50% or more. This is one part of the list.
# System: T1, S. aureus MSSA476
# T1 construct: MSSA476
# Design: species or system S. aureus MSSA476 (TSB) or V. cholerae SAD30 (LB); 384-well bacterial growth screen at 25 uM, OD600 relative to DMSO control
# Conditions: relative growth, OD600, TSB; 25 µM; inhibitor
row,SMILES,% of control remaining [%]
1,"Cc1ccc(NC(=O)C(C#N)=Cc2ccc3c(c2)OCCO3)c(C)c1 [9-H03, 2-cyano-3-(2,3-dihydro-1,4-benzodioxin-6-yl)-N-(2,4-dimethylphenyl)prop-2-enamide]",132.434
2,"CC(Cl)C(=O)N[C@H]1C[C@@H]1c1cnn(-c2ccccc2)c1 (mixture of isomers) [7-M08, rac-2-chloro-N-[(1R,2S)-2-(1-phenyl-1H-pyrazol-4-yl)cyclopropyl]propanamide]",77.551
3,"CC(Cl)C(=O)NCCc1nnnn1-c1ccccc1 (centres unmarked) [7-G17, 2-chloro-N-[2-(1-phenyl-1H-1,2,3,4-tetrazol-5-yl)ethyl]propanamide]",91.6797
4,"Cc1ccccc1N1C(=O)C=CC1=O [10-J13, 1-(2-methylphenyl)-2,5-dihydro-1H-pyrrole-2,5-dione]",117.5
5,"C=CC(=O)N1CCCC(n2cncn2)C1 (centres unmarked) [2-C03, 1-[3-(1H-1,2,4-triazol-1-yl)piperidin-1-yl]prop-2-en-1-one]",116.623
6,"Cc1noc(C23CC(CN2C(=O)C(C)Cl)C3)n1 (centres unmarked) [7-E10, 2-chloro-1-[1-(3-methyl-1,2,4-oxadiazol-5-yl)-2-azabicyclo[2.1.1]hexan-2-yl]propan-1-one]",102.983
7,"CC(C)c1ccc(-c2cc(NC(=O)CCl)n(-c3ccccc3)n2)cc1 [4-C16, 2-chloro-N-{1-phenyl-3-[4-(propan-2-yl)phenyl]-1H-pyrazol-5-yl}acetamide]",68.223
8,"C=CC(=O)NCc1cccc(NS(C)(=O)=O)c1 [3-K15, N-[(3-methanesulfonamidophenyl)methyl]prop-2-enamide]",102.046
9,"N#CC(=Cc1csnn1)C(=O)Nc1ccc(Oc2ccccc2)cc1 [8-M12, 2-cyano-N-(4-phenoxyphenyl)-3-(1,2,3-thiadiazol-4-yl)prop-2-enamide]",94.6058
10,"CC1=C(C#N)C(=O)N(C2CCS(=O)(=O)C2)C(=O)C1=Cc1ccco1 (centres unmarked) [9-O13, 1-(1,1-dioxo-1lambda6-thiolan-3-yl)-5-[(furan-2-yl)methylidene]-4-methyl-2,6-dioxo-1,2,5,6-tetrahydropyridine-3-carbonitrile]",125.543
11,"C=CC(=O)N1CCC([C@@H](C)O)CC1 [3-E12, 1-{4-[(1R)-1-hydroxyethyl]piperidin-1-yl}prop-2-en-1-one]",83.5873
12,"CCn1c2ccccc2c2cc(NC(=O)C(C)Cl)ccc21 (centres unmarked) [4-E12, 2-chloro-N-(9-ethyl-9H-carbazol-3-yl)propanamide]",114.721
13,"C=CC(=O)NC(Cc1ccccc1)c1ccccn1 (centres unmarked) [2-K14, N-[2-phenyl-1-(pyridin-2-yl)ethyl]prop-2-enamide]",109.312
14,"C=CC(=O)N1CCC(C(=O)N[C@H]2CC[C@@H](CC#N)C2)CC1 (racemic) [2-G21, rac-N-[(1R,3S)-3-(cyanomethyl)cyclopentyl]-1-(prop-2-enoyl)piperidine-4-carboxamide]",93.6466
15,"Cc1ccc(C=C(C#N)C(=O)Nc2ccccc2Cl)s1 [9-C22, N-(2-chlorophenyl)-2-cyano-3-(5-methylthiophen-2-yl)prop-2-enamide]",83.2959
16,"Cc1csc(CN(CC2CCCO2)C(=O)C(C)Cl)n1 (centres unmarked) [7-E09, 2-chloro-N-[(4-methyl-1,3-thiazol-2-yl)methyl]-N-[(oxolan-2-yl)methyl]propanamide]",87.9121
17,"CCc1nsc(N2CCCN(C(=O)C(C)Cl)CC2)n1 (centres unmarked) [7-B15, 2-chloro-1-[4-(3-ethyl-1,2,4-thiadiazol-5-yl)-1,4-diazepan-1-yl]propan-1-one]",94.8195
18,"CCOC(=O)c1c(NC(=O)CCl)sc2c1CCCC2 [6-I11, ethyl 2-(2-chloroacetamido)-4,5,6,7-tetrahydro-1-benzothiophene-3-carboxylate]",96.6341
19,"C=CC(=O)Nc1ccc(-n2nc(C)[nH]c2=O)cc1 [2-E16, N-[4-(3-methyl-5-oxo-4,5-dihydro-1H-1,2,4-triazol-1-yl)phenyl]prop-2-enamide]",120.801
20,"CC(Cl)C(=O)Nc1nc(-c2ccccc2)cs1 (centres unmarked) [6-L10, 2-chloro-N-(4-phenyl-1,3-thiazol-2-yl)propanamide]",85.0244
21,"C=CC(=O)Nc1cc(NC(=O)[C@@H]2CSCN2C(=O)CC)ccc1F [2-P18, (4R)-N-[4-fluoro-3-(prop-2-enamido)phenyl]-3-propanoyl-1,3-thiazolidine-4-carboxamide]",83.899
22,"CC(Cl)C(=O)N1Cc2ccoc2CC(C)(C)C1 (centres unmarked) [5-P21, 2-chloro-1-{7,7-dimethyl-4H,5H,6H,7H,8H-furo[3,2-c]azepin-5-yl}propan-1-one]",106.74

row,SMILES,% of control remaining [%]
1,"CCCCNC(=O)C(C#N)=Cc1cc(C)ccc1C [9-C11, N-butyl-2-cyano-3-(2,5-dimethylphenyl)prop-2-enamide]",94.9813
2,"C=CC(=O)N1CCC(C(=O)Nc2ccn(CC(=O)N(C)C)n2)CC1 [2-H12, N-{1-[(dimethylcarbamoyl)methyl]-1H-pyrazol-3-yl}-1-(prop-2-enoyl)piperidine-4-carboxamide]",113.49
3,Cc1cccc(-n2cc(C(=O)CCl)nn2)c1 [10-L07],0
4,"C=CC(=O)NCC(C)(C)C1CCCCC1 [1-E21, N-(2-cyclohexyl-2-methylpropyl)prop-2-enamide]",91.0769
5,"COc1cc(C=C(C#N)C(=O)Nc2ccccn2)ccc1O [9-P08, 2-cyano-3-(4-hydroxy-3-methoxyphenyl)-N-(pyridin-2-yl)prop-2-enamide]",112.959
6,"N#CC(=Cc1ccccc1OC(F)F)C(=O)NC1CCCCC1 [8-H18, 2-cyano-N-cyclohexyl-3-[2-(difluoromethoxy)phenyl]prop-2-enamide]",92.9461
7,"C=CC(=O)N1CCn2cccc2C12COC2 [1-K09, 1-{3',4'-dihydro-2'H-spiro[oxetane-3,1'-pyrrolo[1,2-a]pyrazin]-2'-yl}prop-2-en-1-one]",107.253
8,"CN(CC(=O)NCc1ccco1)C(=O)CCl [4-A18, 2-chloro-N-({[(furan-2-yl)methyl]carbamoyl}methyl)-N-methylacetamide]",130.729
9,"CC(CC#N)Sc1ccccc1NC(=O)CCl (centres unmarked) [5-F14, 2-chloro-N-{2-[(1-cyanopropan-2-yl)sulfanyl]phenyl}acetamide]",112.204
10,"CC(Cl)C(=O)NCc1ncn(Cc2cccc(F)c2)n1 (centres unmarked) [7-K03, 2-chloro-N-({1-[(3-fluorophenyl)methyl]-1H-1,2,4-triazol-3-yl}methyl)propanamide]",114.286
11,"COc1ccc(CN2CCN(C(=O)CCl)CC2)cc1F.Cl [4-P18, 2-chloro-1-{4-[(3-fluoro-4-methoxyphenyl)methyl]piperazin-1-yl}ethan-1-one hydrochloride]",106.336
12,"CN(CCC1CCCCC1)C(=O)CCl [5-A06, 2-chloro-N-(2-cyclohexylethyl)-N-methylacetamide]",90.7104
13,"O=C(CCl)N1CCCC1c1nc(Cc2ccc(F)cc2)no1 (centres unmarked) [5-M10, 2-chloro-1-(2-{3-[(4-fluorophenyl)methyl]-1,2,4-oxadiazol-5-yl}pyrrolidin-1-yl)ethan-1-one]",85.9745
14,"O=C(CCl)c1c[nH]c(C(=O)N2CCCC2)c1 [10-A16, 2-chloro-1-[5-(pyrrolidine-1-carbonyl)-1H-pyrrol-3-yl]ethan-1-one]",115
15,"C=CC(=O)NCC1CCCC(C2CC2)O1 (centres unmarked) [1-M17, N-[(6-cyclopropyloxan-2-yl)methyl]prop-2-enamide]",124.835
16,"Cc1ccc(CNC(=O)C(C)Cl)cc1 (centres unmarked) [5-O03, 2-chloro-N-[(4-methylphenyl)methyl]propanamide]",106.74
17,"Cc1cc(C(=O)CCl)c(C)n1-c1cccc([N+](=O)[O-])c1 [10-B16, 2-chloro-1-[2,5-dimethyl-1-(3-nitrophenyl)-1H-pyrrol-3-yl]ethan-1-one]",136.563
18,"N#CC(=Cc1ccc(-c2ccccc2F)o1)C(=O)NCc1ccccc1 [9-H10, N-benzyl-2-cyano-3-[5-(2-fluorophenyl)furan-2-yl]prop-2-enamide]",112.659
19,"O=C(CCl)c1c(-c2ccccc2)[nH]c2ccccc12 [10-E05, 2-chloro-1-(2-phenyl-1H-indol-3-yl)ethan-1-one]",159.063
20,"CC(C)NC(=O)C(C#N)=Cc1cccc(O)c1 [8-A22, 2-cyano-3-(3-hydroxyphenyl)-N-(propan-2-yl)prop-2-enamide]",90.2905
21,"N#CC(=Cc1ccc(O)c(O)c1)C(=O)Nc1ccccc1F [8-B05, 2-cyano-3-(3,4-dihydroxyphenyl)-N-(2-fluorophenyl)prop-2-enamide]",94.9378
22,"C=CC(=O)NCc1noc2c1CC(C)(C)CC2 [2-L07, N-[(5,5-dimethyl-4,5,6,7-tetrahydro-1,2-benzoxazol-3-yl)methyl]prop-2-enamide]",121.149
